The other results are listed elsewhere or left out.
Columns and labels:
Assay in all cases: glycan array binding signal (z-score within array); higher = stronger binding
Settings in all cases: glycan notation: IUPAC condensed, linker removed
[1] = biological target: Gal(b1-4)GlcNAc(b1-3)Gal(b1-4)GlcNAc(b1-2)Man(a1-3)[Gal(b1-4)GlcNAc(b1-3)Gal(b1-4)GlcNAc(b1-2)Man(a1-6)]Man(b1-4)GlcNAc(b1-4)[Fuc(a1-6)]GlcNAc
In short: (§1)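 Glycan array data came from 3228 arrays in the Consortium for Functional Glycomics database, and only arrays with an available protein sequence were kept. Glycan names were put into IUPAC-condensed notation, and columns mapping to the same glycan were averaged. The binding signal is a within-array Z-score, averaged across arrays of one protein sequence run at different concentrations or buffers and across linkers. A negative Z-score can be read as non-binding.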

[2] = biological target: Gal(b1-4)GlcNAc(b1-3)Gal(b1-4)GlcNAc(b1-2)[Gal(b1-4)GlcNAc(b1-3)Gal(b1-4)GlcNAc(b1-6)]Man(a1-6)[Gal(b1-4)GlcNAc(b1-3)Gal(b1-4)GlcNAc(b1-2)Man(a1-3)]Man(b1-4)GlcNAc(b1-4)GlcNAc
In short: as §1

[3] = biological target: Gal(b1-4)GlcNAc(b1-3)Gal(b1-4)GlcNAc(b1-2)[Gal(b1-4)GlcNAc(b1-3)Gal(b1-4)GlcNAc(b1-6)]Man(a1-6)[Gal(b1-4)GlcNAc(b1-3)Gal(b1-4)GlcNAc(b1-2)Man(a1-3)]Man(b1-4)GlcNAc(b1-4)[Fuc(a1-6)]GlcNAc
In short: as §1

[4] = biological target: Gal(b1-4)GlcNAc(b1-3)Gal(b1-4)GlcNAc(b1-3)Gal(b1-4)GlcNAc
In short: as §1

[5] = biological target: Gal(b1-4)GlcNAc(b1-3)Gal(b1-4)GlcNAc(b1-3)Gal(b1-4)GlcNAc(b1-2)Man(a1-3)[Gal(b1-4)GlcNAc(b1-3)Gal(b1-4)GlcNAc(b1-3)Gal(b1-4)GlcNAc(b1-2)Man(a1-6)]Man(b1-4)GlcNAc(b1-4)GlcNAc
In short: as §1

[6] = biological target: Gal(b1-4)GlcNAc(b1-3)Gal(b1-4)GlcNAc(b1-3)Gal(b1-4)GlcNAc(b1-2)Man(a1-3)[Gal(b1-4)GlcNAc(b1-3)Gal(b1-4)GlcNAc(b1-3)Gal(b1-4)GlcNAc(b1-2)Man(a1-6)]Man(b1-4)GlcNAc(b1-4)[Fuc(a1-6)]GlcNAc
In short: as §1

[7] = biological target: Gal(b1-4)GlcNAc(b1-3)Gal(b1-4)GlcNAc(b1-3)Gal(b1-4)GlcNAc(b1-2)[Gal(b1-4)GlcNAc(b1-3)Gal(b1-4)GlcNAc(b1-3)Gal(b1-4)GlcNAc(b1-6)]Man(a1-6)[Gal(b1-4)GlcNAc(b1-3)Gal(b1-4)GlcNAc(b1-3)Gal(b1-4)GlcNAc(b1-2)Man(a1-3)]Man(b1-4)GlcNAc(b1-4)[Fuc(a1-6)]GlcNAc
In short: as §1

[8] = biological target: Gal(b1-4)GlcNAc(b1-3)Gal(b1-4)GlcNAc(b1-3)Gal(b1-4)GlcNAc(b1-3)Gal(b1-4)GlcNAc(b1-2)Man(a1-3)[Gal(b1-4)GlcNAc(b1-3)Gal(b1-4)GlcNAc(b1-3)Gal(b1-4)GlcNAc(b1-3)Gal(b1-4)GlcNAc(b1-2)Man(a1-6)]Man(b1-4)GlcNAc(b1-4)GlcNAc
In short: as §1

[9] = biological target: Gal(b1-4)GlcNAc(b1-3)Gal(b1-4)GlcNAc(b1-3)Gal(b1-4)GlcNAc(b1-3)Gal(b1-4)GlcNAc(b1-2)Man(a1-3)[Gal(b1-4)GlcNAc(b1-3)Gal(b1-4)GlcNAc(b1-3)Gal(b1-4)GlcNAc(b1-3)Gal(b1-4)GlcNAc(b1-2)Man(a1-6)]Man(b1-4)GlcNAc(b1-4)[Fuc(a1-6)]GlcNAc
In short: as §1

[10] = biological target: Gal(b1-4)GlcNAc(b1-3)Gal(b1-4)GlcNAc(b1-3)Gal(b1-4)GlcNAc(b1-3)Gal(b1-4)GlcNAc(b1-2)[Gal(b1-4)GlcNAc(b1-3)Gal(b1-4)GlcNAc(b1-3)Gal(b1-4)GlcNAc(b1-3)Gal(b1-4)GlcNAc(b1-6)]Man(a1-6)[Gal(b1-4)GlcNAc(b1-3)Gal(b1-4)GlcNAc(b1-3)Gal(b1-4)GlcNAc(b1-3)Gal(b1-4)GlcNAc(b1-2)Man(a1-3)]Man(b1-4)GlcNAc(b1-4)[Fuc(a1-6)]GlcNAc
In short: as §1

[11] = biological target: Gal(b1-4)GlcNAc(b1-3)Gal(b1-4)GlcNAc(b1-3)Gal(b1-4)GlcNAc(b1-3)Gal(b1-4)GlcNAc(b1-3)Gal(b1-4)GlcNAc(b1-2)Man(a1-3)[Gal(b1-4)GlcNAc(b1-3)Gal(b1-4)GlcNAc(b1-3)Gal(b1-4)GlcNAc(b1-3)Gal(b1-4)GlcNAc(b1-3)Gal(b1-4)GlcNAc(b1-2)Man(a1-6)]Man(b1-4)GlcNAc(b1-4)GlcNAc
In short: as §1

[12] = biological target: Gal(b1-4)GlcNAc(b1-3)Gal(b1-4)GlcNAc(b1-3)Gal(b1-4)GlcNAc(b1-3)Gal(b1-4)GlcNAc(b1-3)Gal(b1-4)GlcNAc(b1-2)Man(a1-3)[Gal(b1-4)GlcNAc(b1-3)Gal(b1-4)GlcNAc(b1-3)Gal(b1-4)GlcNAc(b1-3)Gal(b1-4)GlcNAc(b1-3)Gal(b1-4)GlcNAc(b1-2)Man(a1-6)]Man(b1-4)GlcNAc(b1-4)[Fuc(a1-6)]GlcNAc
In short: as §1

[13] = biological target: Gal(b1-4)GlcNAc(b1-3)Gal(b1-4)GlcNAc(b1-3)Gal(b1-4)GlcNAc(b1-3)Gal(b1-4)GlcNAc(b1-3)Gal(b1-4)GlcNAc(b1-2)[Gal(b1-4)GlcNAc(b1-3)Gal(b1-4)GlcNAc(b1-3)Gal(b1-4)GlcNAc(b1-3)Gal(b1-4)GlcNAc(b1-3)Gal(b1-4)GlcNAc(b1-6)]Man(a1-6)[Gal(b1-4)GlcNAc(b1-3)Gal(b1-4)GlcNAc(b1-3)Gal(b1-4)GlcNAc(b1-3)Gal(b1-4)GlcNAc(b1-3)Gal(b1-4)GlcNAc(b1-2)Man(a1-3)]Man(b1-4)GlcNAc(b1-4)[Fuc(a1-6)]GlcNAc
In short: as §1

[14] = biological target: Gal(b1-4)GlcNAc(b1-3)Gal(b1-4)GlcNAc(b1-3)Gal(b1-4)GlcNAc(b1-3)Gal(b1-4)GlcNAc(b1-3)Gal(b1-4)GlcNAc(b1-3)Gal(b1-4)GlcNAc(b1-2)Man(a1-3)[Gal(b1-4)GlcNAc(b1-3)Gal(b1-4)GlcNAc(b1-3)Gal(b1-4)GlcNAc(b1-3)Gal(b1-4)GlcNAc(b1-3)Gal(b1-4)GlcNAc(b1-3)Gal(b1-4)GlcNAc(b1-2)Man(a1-6)]Man(b1-4)GlcNAc(b1-4)GlcNAc
In short: as §1

[15] = biological target: Gal(b1-4)GlcNAc(b1-3)Gal(b1-4)GlcNAc(b1-3)GalNAc
In short: as §1

[16] = biological target: Gal(b1-4)GlcNAc(b1-3)Gal(b1-4)GlcNAc(b1-3)[Gal(b1-4)GlcNAc(b1-3)Gal(b1-4)GlcNAc(b1-6)]GalNAc
In short: as §1

[17] = biological target: Gal(b1-4)GlcNAc(b1-3)Gal(b1-4)GlcNAc(b1-6)[Gal(b1-3)]GalNAc
In short: as §1

[18] = biological target: Gal(b1-4)GlcNAc(b1-3)Gal(b1-4)[Fuc(a1-3)]GlcNAc(b1-3)Gal(b1-4)[Fuc(a1-3)]GlcNAc
In short: as §1

[19] = biological target: Gal(b1-4)GlcNAc(b1-3)GalNAc
In short: as §1

[20] = biological target: Gal(b1-4)GlcNAc(b1-3)[Fuc(a1-3)GlcNAc(b1-6)]Gal(b1-4)Glc
In short: as §1

[21] = biological target: Gal(b1-4)GlcNAc(b1-3)[Gal(b1-4)GlcNAc(b1-6)]Gal(b1-4)GlcNAc
In short: as §1

[22] = biological target: Gal(b1-4)GlcNAc(b1-3)[Gal(b1-4)GlcNAc(b1-6)]GalNAc
In short: as §1

[23] = biological target: Gal(b1-4)GlcNAc(b1-3)[GlcNAc(b1-6)]Gal(b1-4)GlcNAc
In short: as §1

[24] = biological target: Gal(b1-4)GlcNAc(b1-6)Gal(b1-4)GlcNAc
In short: as §1

[25] = biological target: Gal(b1-4)GlcNAc(b1-6)GalNAc
In short: as §1

[26] = biological target: Gal(b1-4)GlcNAc(b1-6)[Gal(b1-3)]GalNAc
In short: as §1

[27] = biological target: Gal(b1-4)GlcNAc(b1-6)[Gal(b1-3)]GlcNAc
In short: as §1

[28] = biological target: Gal(b1-4)GlcNAc(b1-6)[Gal(b1-4)GlcNAc(b1-3)]GalNAc
In short: as §1

Gal(b1-4)GlcNAc6P = biological target: Gal(b1-4)GlcNAc6P
In short: as §1

Gal(b1-6)Gal = biological target: Gal(b1-6)Gal
In short: as §1

Gal3S(b1-3)GalNAc = biological target: Gal3S(b1-3)GalNAc
In short: as §1

Gal3S(b1-3)GlcNAc = biological target: Gal3S(b1-3)GlcNAc
In short: as §1

[29] = biological target: Gal3S(b1-3)[Fuc(a1-4)]GlcNAc
In short: as §1

Gal3S(b1-4)Glc = biological target: Gal3S(b1-4)Glc
In short: as §1

Gal3S(b1-4)Glc6S = biological target: Gal3S(b1-4)Glc6S
In short: as §1

Gal3S(b1-4)GlcNAc = biological target: Gal3S(b1-4)GlcNAc
In short: as §1

Gal3S(b1-4)GlcNAc6S = biological target: Gal3S(b1-4)GlcNAc6S
In short: as §1

[30] = biological target: Gal3S(b1-4)[Fuc(a1-3)]Glc6S
In short: as §1

B1: Epa15 (Candida glabrata) (protein)
chain: MGSSHHHHHHSSGLVPRGSHMASDPTTFPLGCSPEFTKTKKGLSMELYRYDYLPPGSYPCWDSAYLNPSYPRTGYKAKKLIATVDGVSGDINFKFNPKFGCKAIPDYLPSNFNYHEPITITNFTMILYGYFMPKTTAFHTFYVTADDLLFMNFGAGNAFDCCRREETADKFGNYAAYSVWGKKSLKNELTVYLHTGVYYPIRLFYNNRDYIAQLDIRFKTEHSNAIITNFTDYFYSVDDSSLGCPGLI
- glycan array binding signal (z-score) [1]: 0.944
- glycan array binding signal (z-score) [2]: 2.71
- glycan array binding signal (z-score) [3]: 0.993
- glycan array binding signal (z-score) [4]: 0.142
- glycan array binding signal (z-score) [5]: 0.704
- glycan array binding signal (z-score) [6]: 0.412
- glycan array binding signal (z-score) [7]: 0.664
- glycan array binding signal (z-score) [8]: 0.185
- glycan array binding signal (z-score) [9]: 0.332
- glycan array binding signal (z-score) [10]: 0.688
- glycan array binding signal (z-score) [11]: 0.912
- glycan array binding signal (z-score) [12]: 0.714
- glycan array binding signal (z-score) [13]: 1.71
- glycan array binding signal (z-score) [14]: 0.654
- glycan array binding signal (z-score) [15]: 0.613
- glycan array binding signal (z-score) [16]: 0.814
- glycan array binding signal (z-score) [17]: -0.241
- glycan array binding signal (z-score) [18]: 0.413
- glycan array binding signal (z-score) [19]: -0.05
- glycan array binding signal (z-score) [20]: 0.257
- glycan array binding signal (z-score) [21]: 0.969
- glycan array binding signal (z-score) [22]: 5.02
- glycan array binding signal (z-score) [23]: -0.483
- glycan array binding signal (z-score) [24]: 0.738
- glycan array binding signal (z-score) [25]: 1.65
- glycan array binding signal (z-score) [26]: 0.697
- glycan array binding signal (z-score) [27]: 5.53
- glycan array binding signal (z-score) [28]: 0.595
- glycan array binding signal (z-score) (Gal(b1-4)GlcNAc6P): 0.852
- glycan array binding signal (z-score) (Gal(b1-6)Gal): -0.017
- glycan array binding signal (z-score) (Gal3S(b1-3)GalNAc): -0.385
- glycan array binding signal (z-score) (Gal3S(b1-3)GlcNAc): -0.486
- glycan array binding signal (z-score) [29]: -0.034
- glycan array binding signal (z-score) (Gal3S(b1-4)Glc): -0.053
- glycan array binding signal (z-score) (Gal3S(b1-4)Glc6S): -0.416
- glycan array binding signal (z-score) (Gal3S(b1-4)GlcNAc): -0.488
- glycan array binding signal (z-score) (Gal3S(b1-4)GlcNAc6S): -0.273
- glycan array binding signal (z-score) [30]: 0.813

Reference: the supplement of paper PMC8728848
